This note sets out measurements from article PMC6919601, “Identification of Plasmodium dipeptidyl aminopeptidase allosteric inhibitors by high throughput screening” (PLoS ONE, 2019).

The structures appear in SMILES notation. Hit rate of the full screen: of about 110,000 compounds, about 230 (0.21%) showed an effect of 50% or more. The list shows a part of the results.
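Further: 30 min substrate incubation versus DMSO and 10 µM JCP410 controls.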

The assay deals with DPAP1 (Plasmodium falciparum, UniProt Q8IIJ9). In words: primary screen, percent inhibition; read by cleavage of a fluorogenic dipeptide substrate; higher = more effect of the substance. Also on record: species or system P. falciparum D10 trophozoite lysates; single well.
Chain of DPAP1 (Q8IIJ9 whole entry, looked up): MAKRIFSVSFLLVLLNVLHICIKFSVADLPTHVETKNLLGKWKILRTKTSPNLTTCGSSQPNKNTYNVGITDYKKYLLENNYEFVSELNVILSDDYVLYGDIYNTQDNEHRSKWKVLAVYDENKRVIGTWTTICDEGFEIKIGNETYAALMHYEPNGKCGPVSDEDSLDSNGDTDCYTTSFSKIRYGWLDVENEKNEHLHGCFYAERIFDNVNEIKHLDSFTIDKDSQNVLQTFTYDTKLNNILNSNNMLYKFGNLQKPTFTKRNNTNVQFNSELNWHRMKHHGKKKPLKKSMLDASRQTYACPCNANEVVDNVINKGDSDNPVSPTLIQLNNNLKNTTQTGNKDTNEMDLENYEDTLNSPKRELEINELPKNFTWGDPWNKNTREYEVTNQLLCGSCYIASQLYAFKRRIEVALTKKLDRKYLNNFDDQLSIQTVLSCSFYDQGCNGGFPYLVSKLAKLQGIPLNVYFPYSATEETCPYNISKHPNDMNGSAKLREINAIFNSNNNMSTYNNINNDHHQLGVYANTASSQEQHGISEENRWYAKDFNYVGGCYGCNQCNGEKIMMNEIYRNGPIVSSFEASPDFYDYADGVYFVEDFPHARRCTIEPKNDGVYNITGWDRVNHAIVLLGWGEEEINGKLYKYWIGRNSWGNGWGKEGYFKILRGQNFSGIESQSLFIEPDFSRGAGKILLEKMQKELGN
Consider `O=C(Nc1cccc(C(F)(F)F)c1)/C(=C/c1cccnc1)NC(=O)c1cccc(Br)c1`, for which the “% Inhibition @ 10 uM” value is recorded as 21.5%.
As for `CCCc1ccc(OCc2ccc(C(=O)OC)o2)cc1`, the “% Inhibition @ 10 uM” value is -1.33%.
With `COc1ccc2nc(C)c3cc(C)oc3c2c1`, the “% Inhibition @ 10 uM” value is -6.83%.
Consider `Clc1ccc(Sc2c(-c3ccccc3)nc3ccccn23)cc1`, for which the “% Inhibition @ 10 uM” value is recorded as -5.51%.
Take `COc1cc(Cl)c(S(=O)(=O)N2CCN(Cc3ccc4c(c3)OCO4)CC2)cc1Cl`: the “% Inhibition @ 10 uM” value was -4.33%.
Take `Cc1cc(Oc2ccc(=O)n(C)n2)nc(SCC(N)=O)n1`: the “% Inhibition @ 10 uM” value is reported as -10.8%.
Take `CCC1CCC(NCCN2CCOCC2)CC1` (centres unmarked): the “% Inhibition @ 10 uM” value is -1.78%.
In the case of `COc1ccccc1-c1c(C)nn2c(N(C)C3CCCCC3)cc(C)nc12`, the “% Inhibition @ 10 uM” value amounted to 0.238%.
Consider `Oc1nc(/C=C/c2ccc(Cl)cc2Cl)cc(C(F)(F)F)n1`, for which the “% Inhibition @ 10 uM” value is 4.54%.
The result for `CCCC(=O)N1CCN(Cc2ccc3c(c2)OCO3)CC1` reads -3.12%; that for `Cc1n[nH]c(C)c1CCCOc1ccc(C(C)(C)C)cc1`, -1.62%.
The result for `COc1ccc(C(=O)N2CCN(C(=O)Cc3ccccc3)CC2)cc1` reads 0.587%; that for `CCN(C(=O)c1cccs1)c1ccccc1`, 10.5%.
Take `CN(CC(=O)O)c1ccccc1C(=O)O`: the “% Inhibition @ 10 uM” value amounted to 3.16%.
For `O=C(Cn1ccc2cc(S(=O)(=O)N3CCCC3)ccc21)NCc1ccco1`, the “% Inhibition @ 10 uM” value is given as -3.69%.
`CCOC(=O)C1CCCN(C2CCN(CC)CC2)C1` (centres unmarked): the “% Inhibition @ 10 uM” value turned out to be 3.19%.
For `O=C(/C=C/c1ccccc1)Nc1nnc(/N=C/c2ccc(Br)s2)s1`, the “% Inhibition @ 10 uM” value is on record as -0.615%.
As to `CCN(CC)CCCNC(=O)c1cc(-c2ccc(O)cc2)on1`, the “% Inhibition @ 10 uM” value is recorded as 1.37%.
For `COc1ccc(CN2CCOC(=O)C2=O)cc1OC`, the “% Inhibition @ 10 uM” value came to 0.0539%.
With `Cn1nnnc1SCCCNCc1ccc2c(c1)OCO2`, the “% Inhibition @ 10 uM” value stood at 2.25%.
`Nc1ccc(C(=O)Nc2cccnc2)c(C(=O)O)c1`: the “% Inhibition @ 10 uM” value was determined as 1.73%.
For `Cc1nc(N2C(=O)C(O)=C(C(=O)c3ccccc3)C2c2ccc(Br)cc2)sc1C` (centres unmarked), the “% Inhibition @ 10 uM” value is reported as 15.2%.
With `O=C1NCCCC1C(=O)NCC(O)CO` (centres unmarked), the “% Inhibition @ 10 uM” value is given as 1.82%.
The result for `O=S(=O)(c1ccc(F)cc1)N1CN2CCN(C2)C1` reads -2.91%; that for `COc1ccc2cc(-c3nc(-c4cccs4)no3)c(=O)oc2c1`, 10.3%.
The result for `O=C(c1cccs1)N1CCN(C/C=C/c2ccccc2)CC1` reads 6.8%; that for `COc1ccc(C2=NN(C(=O)CCC(=O)O)C(c3ccc(OC)cc3)C2)cc1` (centres unmarked), -11.2%.
In the case of `Cc1ccccc1C(=O)Nc1sc2c(c1C(=O)N1CCN(C)CC1)CCC(C)C2` (centres unmarked), the “% Inhibition @ 10 uM” value is -0.46%.
The result for `Nc1ccc(S(=O)(=O)N2CCCCC2)cc1` reads 2.94%.
Consider `COc1cc(NC(=O)CSc2nc(-c3ccc4c(c3)OCO4)ccc2C#N)cc(OC)c1OC`, for which the “% Inhibition @ 10 uM” value was 2.68%.
On to `COc1ccccc1CCNCc1c(C(=O)O)c(C)n(Cc2ccccc2C)c1C`, for which the “% Inhibition @ 10 uM” value is listed as 4.53%.
For `CCCOc1ccc(N2C(=O)CC(NCC34CC5CC(CC(C5)C3)C4)C2=O)cc1` (centres unmarked), the “% Inhibition @ 10 uM” value is given as -6.02%.
Consider `Cn1nccc1CNC(=O)c1ccc(COc2cc(Cl)ccc2Cl)o1`, for which the “% Inhibition @ 10 uM” value was 2.4%.
For the molecule `O=S(=O)(c1ccc2cccc3c2c1CC3)N1CCSC1c1ccco1` (centres unmarked), the “% Inhibition @ 10 uM” value came out at 0.727%.
Under `Cc1ccc(C(=O)n2nc(-c3ccccc3)nc2NCc2ccccc2)cc1` stands 2.31%; under `CCCN1CCC(N2CCN(c3cccc(Cl)c3)CC2)CC1`, -6.85%; under `COc1cc(CN2CCN(C3C4CC5CC(C4)CC3C5)CC2)cc(OC)c1O` (centres unmarked), -9.18%.
With `COc1cc2c(cc1OC)-c1nnnn1C(C)(C)C2`, the “% Inhibition @ 10 uM” value is listed as 4.57%.
On to `COCCNC(=O)CCc1c(C)nc2cc(-c3ccc(Cl)cc3)nn2c1C`, for which the “% Inhibition @ 10 uM” value turned out to be 1.26%.
Under `Cc1ccc(-c2cc(C(=O)NCC3CCCO3)c3ccccc3n2)o1` (centres unmarked) stands -9.11%; under `COc1cccc(/C=C2/S/C(=N\c3ccc(C)cc3)N(C)C2=O)c1OC`, -6.05%.
With `O=C(NCC1CCN(Cc2ccc(F)cc2)CC1)C(Cc1ccccc1)N1Cc2ccccc2C1=O` (centres unmarked), the “% Inhibition @ 10 uM” value is -1.58%.
For the molecule `CCOc1ccc(CN(C2CC2)S(=O)(=O)c2ccc(S(=O)(=O)N(C)C)cc2)cc1`, the “% Inhibition @ 10 uM” value is reported as 5.2%.
For the molecule `COc1ccc(CNC(=O)C2CCC(C/N=c3/c(N4CCOCC4)c(O)c3=O)CC2)cc1` (centres unmarked), the “% Inhibition @ 10 uM” value is -7.72%.
Consider `O=C(CSc1nnc(Cc2ccccc2)o1)NC1CCCCC1`, for which the “% Inhibition @ 10 uM” value is listed as 0.166%.
The result for `CCCCN1C(=O)C(O)(CCCC)C(=O)c2ccccc21` (centres unmarked) reads 3.92%.
The result for `Cc1ccc(C)c(-c2csc(NC(=O)c3cc(C)oc3C)c2C#N)c1` reads 2.08%; that for `COc1ccc(C(=O)C2=C(O)C(=O)N(c3ccc(C)c(Br)c3)C2c2cccnc2)cc1` (centres unmarked), -3.34%; that for `COc1cc(C/N=c2/c(-c3cc(C)c(C)cc3C)c(O)c2=O)cc(OC)c1OC`, -3.05%.
Regarding `Cn1c(-[n+]2ccccc2)c(/C=N/NC(N)=S)sc1=O`, the “% Inhibition @ 10 uM” value is 1.91%.
